# In publication PMC12820563, “FoxP3 forms a head-to-head dimer in vivo and stabilizes its multimerization on adjacent microsatellites”:
# This is one part of the list.
# Biological target: T1, MBP-FoxP1dN (Mus musculus, UniProt P58462 326-579)
# T1 sequence: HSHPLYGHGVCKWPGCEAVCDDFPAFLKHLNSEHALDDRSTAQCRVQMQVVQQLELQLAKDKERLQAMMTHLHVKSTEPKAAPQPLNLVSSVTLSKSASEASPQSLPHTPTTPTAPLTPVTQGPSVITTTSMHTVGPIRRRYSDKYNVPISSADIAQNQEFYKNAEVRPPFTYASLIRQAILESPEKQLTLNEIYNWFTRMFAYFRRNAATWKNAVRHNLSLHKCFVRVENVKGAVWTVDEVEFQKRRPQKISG
# Test: PD-seq (MBP pull-down with sequencing); 20 mM Tris-HCl pH 7.5, 100 mM NaCl, 1.5 mM MgCl2, 0.4 uM protein, 0.1 uM dsDNA library, 30 min, room temperature, amylose pull-down; high values mean tight binding
# Settings: protein: recombinant; tags: His6-MBP; chain copies: 2; dsDNA, one strand shown
# Procedure, shortened: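 A degenerate double-stranded DNA library, filled in with Klenow, was added at 0.1 µM to 0.4 µM His6-MBP-tagged mouse FoxP3 or FoxP1 fragment lacking the N-terminus, expressed in E. coli. Incubation lasted 30 min at room temperature in Tris pH 7.5 buffer with NaCl and MgCl2, after which complexes were collected on amylose resin, washed three times, digested with proteinase K to free the DNA, barcoded by PCR and sequenced by Illumina. Binding is the pooled-replicate reads-per-million enrichment of pull-down over input.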
row,Sequence,binding signal
1,GATGATTGTTCTCCCAGCTGATGAATTGCTTACATCGAGTAAACAAATTTTCCTAATCTTTCTGTTCAAGCGCCATCTAC,1.59 RPM ratio (pull-down/input)
2,GATGATTGTTCTCCCAGCTGATGAATTCAGTATATCGAGTAAACAAATTTTCCTAATCTTTCTGTTCAAGCGCCATCTAC,1.05 RPM ratio (pull-down/input)
3,GATGATTGTTCTCCCAGCTGATGAATTGAGGAACTCGAGTAAACAAATTTTCCTAATCTTTCTGTTCAAGCGCCATCTAC,0.766 RPM ratio (pull-down/input)
4,GATGATTGTTCTCCCAGCTGATGAATTTAGGGTCTCGAGTAAACAAATTTTCCTAATCTTTCTGTTCAAGCGCCATCTAC,0.927 RPM ratio (pull-down/input)
5,GATGATTGTTCTCCCAGCTGATGAATTAAAAACTTCGAGTAAACAAATTTTCCTAATCTTTCTGTTCAAGCGCCATCTAC,1.01 RPM ratio (pull-down/input)
6,GATGATTGTTCTCCCAGCTGATGAATTACCCGTCTCGAGTAAACAAATTTTCCTAATCTTTCTGTTCAAGCGCCATCTAC,0.808 RPM ratio (pull-down/input)
7,GATGATTGTTCTCCCAGCTGATGAATTTTTCAGGTCGAGTAAACAAATTTTCCTAATCTTTCTGTTCAAGCGCCATCTAC,0.857 RPM ratio (pull-down/input)
8,GATGATTGTTCTCCCAGCTGATGAATTGTCGGAATCGAGTAAACAAATTTTCCTAATCTTTCTGTTCAAGCGCCATCTAC,1.05 RPM ratio (pull-down/input)
9,GATGATTGTTCTCCCAGCTGATGAATTAGCACTGTCGAGTAAACAAATTTTCCTAATCTTTCTGTTCAAGCGCCATCTAC,0.842 RPM ratio (pull-down/input)
10,GATGATTGTTCTCCCAGCTGATGAATTTGTTCCCTCGAGTAAACAAATTTTCCTAATCTTTCTGTTCAAGCGCCATCTAC,1.2 RPM ratio (pull-down/input)
11,GATGATTGTTCTCCCAGCTGATGAATTTATCCTTTCGAGTAAACAAATTTTCCTAATCTTTCTGTTCAAGCGCCATCTAC,1.11 RPM ratio (pull-down/input)
12,GATGATTGTTCTCCCAGCTGATGAATTGTGGAAGTCGAGTAAACAAATTTTCCTAATCTTTCTGTTCAAGCGCCATCTAC,0.943 RPM ratio (pull-down/input)
13,GATGATTGTTCTCCCAGCTGATGAATTTGCTTAATCGAGTAAACAAATTTTCCTAATCTTTCTGTTCAAGCGCCATCTAC,1.15 RPM ratio (pull-down/input)
14,GATGATTGTTCTCCCAGCTGATGAATTGTTTAGATCGAGTAAACAAATTTTCCTAATCTTTCTGTTCAAGCGCCATCTAC,2.19 RPM ratio (pull-down/input)
15,GATGATTGTTCTCCCAGCTGATGAATTAGACCACTCGAGTAAACAAATTTTCCTAATCTTTCTGTTCAAGCGCCATCTAC,0.858 RPM ratio (pull-down/input)
16,GATGATTGTTCTCCCAGCTGATGAATTGTTTACTTCGAGTAAACAAATTTTCCTAATCTTTCTGTTCAAGCGCCATCTAC,2.82 RPM ratio (pull-down/input)
17,GATGATTGTTCTCCCAGCTGATGAATTGCTCGGGTCGAGTAAACAAATTTTCCTAATCTTTCTGTTCAAGCGCCATCTAC,0.909 RPM ratio (pull-down/input)
18,GATGATTGTTCTCCCAGCTGATGAATTTTACGTGTCGAGTAAACAAATTTTCCTAATCTTTCTGTTCAAGCGCCATCTAC,0.853 RPM ratio (pull-down/input)
